The text below walks through data of patent US20250361299A1 (published 2025).

In general, EC50 refers to the concentration needed to bring the measured effect to its halfway point. A high value points to lower potency in that assay.

T1: Human CD3 protein (human, UniProt P07766 23-126)
T1 chain: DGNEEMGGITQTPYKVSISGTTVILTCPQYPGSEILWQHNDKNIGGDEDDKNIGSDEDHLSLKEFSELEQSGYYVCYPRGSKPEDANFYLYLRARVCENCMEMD

B1: 1.2 proBiTE (bispecific antibody)
heavy: QDGNEEMGGITQTPYGGGSGGGSGGGSGLSGRSDNHGGSEVQLVESGGGLVQPGGSLRLSCAASGFTFNTYAMNWVRQAPGKGLEWVARIRSKYNNYATYYADSVKGRFTISRDDSKNTLYLQMNSLRAEDTAVYYCARHGNFGSSYVSYFAYWGQGTTVTVSSGGGSSGGGGSGGGGSEVQLVETGGGVVQPGRSLRLSCAASGFTFSSYAMHWVRQAPGKGLEWVAVISYDGSNKYYADSVKGRFTISRDNSKNTLYLQMNSLRAEDTAVYYCARGYVARGDFDYWGQGTLVTVSSASTKGPSVFPLAPSSKSTSGGTAALGCLVKDYFPEPVTVSWNSGALTSGVHTFPAVLQSSGLYSLSSVVTVPSSSLGTQTYICNVNHKPSNTKVDKKVEPKS[human IgG1 Fc with T366L Y407H (EU numbers) cut from this listing]
light: EIVVTQSPATLSVSPGERATLSCRSSTGAVTTSNYANWVQQKPGQAPRGLIGGANKRAPGVPARFSGSLSGDEATLTISSLQSEDFAVYYCALWYSNLWVFGQGTKLEIKGGGGSGGGGSGGGGSDVVMTQSPSTLSASVGDRVTITCRASQSMSRWLAWYQQKPGKGPKLLIYATSTLQSGVPSRFSGSGSGTEFTLTISSLQPEDFATYYCQQLDSFPFSFTFGPGTKVDLKRTVAAPSVFIFPPSDEQLKSGTASVVCLLNNFYPREAKVQWKVDNALQSGNSQESVTEQDSKDSTYSLSSTLTLSKADYEKHKVYACEVTHQGLSSPVTKSFNRGE[human IgG1 Fc with T366L Y407H (EU numbers) cut from this listing]
B2: 1.3 proBiTE (bispecific antibody)
heavy: QDGNEEMGGITQTPYKVSISGTGGGSGGGSGGGSGLSGRSDNHGGSEVQLVESGGGLVQPGGSLRLSCAASGFTFNTYAMNWVRQAPGKGLEWVARIRSKYNNYATYYADSVKGRFTISRDDSKNTLYLQMNSLRAEDTAVYYCARHGNFGSSYVSYFAYWGQGTTVTVSSGGGSSGGGGSGGGGSEVQLVETGGGVVQPGRSLRLSCAASGFTFSSYAMHWVRQAPGKGLEWVAVISYDGSNKYYADSVKGRFTISRDNSKNTLYLQMNSLRAEDTAVYYCARGYVARGDFDYWGQGTLVTVSSASTKGPSVFPLAPSSKSTSGGTAALGCLVKDYFPEPVTVSWNSGALTSGVHTFPAVLQSSGLYSLSSVVTVPSSSLGTQTYICNVNHKPSNTKVDKKVEPKS[human IgG1 Fc with T366L Y407H (EU numbers) cut from this listing]
light: EIVVTQSPATLSVSPGERATLSCRSSTGAVTTSNYANWVQQKPGQAPRGLIGGANKRAPGVPARFSGSLSGDEATLTISSLQSEDFAVYYCALWYSNLWVFGQGTKLEIKGGGGSGGGGSGGGGSDVVMTQSPSTLSASVGDRVTITCRASQSMSRWLAWYQQKPGKGPKLLIYATSTLQSGVPSRFSGSGSGTEFTLTISSLQPEDFATYYCQQLDSFPFSFTFGPGTKVDLKRTVAAPSVFIFPPSDEQLKSGTASVVCLLNNFYPREAKVQWKVDNALQSGNSQESVTEQDSKDSTYSLSSTLTLSKADYEKHKVYACEVTHQGLSSPVTKSFNRGE[human IgG1 Fc with T366L Y407H (EU numbers) cut from this listing]
B3: 1.4 proBiTE (bispecific antibody)
heavy: QDGNEEMGGIGGGSQDGNEEMGGGGGSGGGSGGGSGLSGRSDNHGGSEVQLVESGGGLVQPGGSLRLSCAASGFTFNTYAMNWVRQAPGKGLEWVARIRSKYNNYATYYADSVKGRFTISRDDSKNTLYLQMNSLRAEDTAVYYCARHGNFGSSYVSYFAYWGQGTTVTVSSGGGSSGGGGSGGGGSEVQLVETGGGVVQPGRSLRLSCAASGFTFSSYAMHWVRQAPGKGLEWVAVISYDGSNKYYADSVKGRFTISRDNSKNTLYLQMNSLRAEDTAVYYCARGYVARGDFDYWGQGTLVTVSSASTKGPSVFPLAPSSKSTSGGTAALGCLVKDYFPEPVTVSWNSGALTSGVHTFPAVLQSSGLYSLSSVVTVPSSSLGTQTYICNVNHKPSNTKVDKKVEPKS[human IgG1 Fc with T366L Y407H (EU numbers) cut from this listing]
light: EIVVTQSPATLSVSPGERATLSCRSSTGAVTTSNYANWVQQKPGQAPRGLIGGANKRAPGVPARFSGSLSGDEATLTISSLQSEDFAVYYCALWYSNLWVFGQGTKLEIKGGGGSGGGGSGGGGSDVVMTQSPSTLSASVGDRVTITCRASQSMSRWLAWYQQKPGKGPKLLIYATSTLQSGVPSRFSGSGSGTEFTLTISSLQPEDFATYYCQQLDSFPFSFTFGPGTKVDLKRTVAAPSVFIFPPSDEQLKSGTASVVCLLNNFYPREAKVQWKVDNALQSGNSQESVTEQDSKDSTYSLSSTLTLSKADYEKHKVYACEVTHQGLSSPVTKSFNRGE[human IgG1 Fc with T366L Y407H (EU numbers) cut from this listing]
B4: 1.4.1 proBiTE (bispecific antibody)
heavy: QDGNEEMGGGSQDGNEEMGGITQTPYGGGSGGGSGGGSGLSGRSDNHGGSEVQLVESGGGLVQPGGSLRLSCAASGFTFNTYAMNWVRQAPGKGLEWVARIRSKYNNYATYYADSVKGRFTISRDDSKNTLYLQMNSLRAEDTAVYYCARHGNFGSSYVSYFAYWGQGTTVTVSSGGGSSGGGGSGGGGSEVQLVETGGGVVQPGRSLRLSCAASGFTFSSYAMHWVRQAPGKGLEWVAVISYDGSNKYYADSVKGRFTISRDNSKNTLYLQMNSLRAEDTAVYYCARGYVARGDFDYWGQGTLVTVSSASTKGPSVFPLAPSSKSTSGGTAALGCLVKDYFPEPVTVSWNSGALTSGVHTFPAVLQSSGLYSLSSVVTVPSSSLGTQTYICNVNHKPSNTKVDKKVEPKS[human IgG1 Fc with T366L Y407H (EU numbers) cut from this listing]
light: EIVVTQSPATLSVSPGERATLSCRSSTGAVTTSNYANWVQQKPGQAPRGLIGGANKRAPGVPARFSGSLSGDEATLTISSLQSEDFAVYYCALWYSNLWVFGQGTKLEIKGGGGSGGGGSGGGGSDVVMTQSPSTLSASVGDRVTITCRASQSMSRWLAWYQQKPGKGPKLLIYATSTLQSGVPSRFSGSGSGTEFTLTISSLQPEDFATYYCQQLDSFPFSFTFGPGTKVDLKRTVAAPSVFIFPPSDEQLKSGTASVVCLLNNFYPREAKVQWKVDNALQSGNSQESVTEQDSKDSTYSLSSTLTLSKADYEKHKVYACEVTHQGLSSPVTKSFNRGE[human IgG1 Fc with T366L Y407H (EU numbers) cut from this listing]
B5: 1.1 proBiTE (bispecific antibody)
heavy: QDGNEEMGGIGGGSGGGSGGGSGLSGRSDNHGGSEVQLVESGGGLVQPGGSLRLSCAASGFTFNTYAMNWVRQAPGKGLEWVARIRSKYNNYATYYADSVKGRFTISRDDSKNTLYLQMNSLRAEDTAVYYCARHGNFGSSYVSYFAYWGQGTTVTVSSGGGSSGGGGSGGGGSEVQLVETGGGVVQPGRSLRLSCAASGFTFSSYAMHWVRQAPGKGLEWVAVISYDGSNKYYADSVKGRFTISRDNSKNTLYLQMNSLRAEDTAVYYCARGYVARGDFDYWGQGTLVTVSSASTKGPSVFPLAPSSKSTSGGTAALGCLVKDYFPEPVTVSWNSGALTSGVHTFPAVLQSSGLYSLSSVVTVPSSSLGTQTYICNVNHKPSNTKVDKKVEPKS[human IgG1 Fc with T366L Y407H (EU numbers) cut from this listing]
light: EIVVTQSPATLSVSPGERATLSCRSSTGAVTTSNYANWVQQKPGQAPRGLIGGANKRAPGVPARFSGSLSGDEATLTISSLQSEDFAVYYCALWYSNLWVFGQGTKLEIKGGGGSGGGGSGGGGSDVVMTQSPSTLSASVGDRVTITCRASQSMSRWLAWYQQKPGKGPKLLIYATSTLQSGVPSRFSGSGSGTEFTLTISSLQPEDFATYYCQQLDSFPFSFTFGPGTKVDLKRTVAAPSVFIFPPSDEQLKSGTASVVCLLNNFYPREAKVQWKVDNALQSGNSQESVTEQDSKDSTYSLSSTLTLSKADYEKHKVYACEVTHQGLSSPVTKSFNRGE[human IgG1 Fc with T366L Y407H (EU numbers) cut from this listing]
B6: 1.5 proBiTE (bispecific antibody)
heavy: QDGNEEMGGITQTPYGGGSGGGSGGGSGLSGRSDNHGGSEVQLVESGGGLVQPGGSLRLSCAASGFTFNTYAMNWVRQAPGKGLEWVARIRSKYNNYATYYADSVKGRFTISRDDSKNTLYLQMNSLRAEDTAVYYCARHGNFGSSYVSYFAYWGQGTTVTVSSGGGSSGGGGSGGGGSEVQLVETGGGVVQPGRSLRLSCAASGFTFSSYAMHWVRQAPGKGLEWVAVISYDGSNKYYADSVKGRFTISRDNSKNTLYLQMNSLRAEDTAVYYCARGYVARGDFDYWGQGTLVTVSSASTKGPSVFPLAPSSKSTSGGTAALGCLVKDYFPEPVTVSWNSGALTSGVHTFPAVLQSSGLYSLSSVVTVPSSSLGTQTYICNVNHKPSNTKVDKKVEPKS[human IgG1 Fc with T366L Y407H (EU numbers) cut from this listing]
light: QDGNEEMGGITQTPYGGGSGGGSGGGSGLSGRSDNHGGSEIVVTQSPATLSVSPGERATLSCRSSTGAVTTSNYANWVQQKPGQAPRGLIGGANKRAPGVPARFSGSLSGDEATLTISSLQSEDFAVYYCALWYSNLWVFGQGTKLEIKGGGGSGGGGSGGGGSDVVMTQSPSTLSASVGDRVTITCRASQSMSRWLAWYQQKPGKGPKLLIYATSTLQSGVPSRFSGSGSGTEFTLTISSLQPEDFATYYCQQLDSFPFSFTFGPGTKVDLKRTVAAPSVFIFPPSDEQLKSGTASVVCLLNNFYPREAKVQWKVDNALQSGNSQESVTEQDSKDSTYSLSSTLTLSKADYEKHKVYACEVTHQGLSSPVTKSFNRGE[human IgG1 Fc with T366L Y407H (EU numbers) cut from this listing]

The assay concerns the target T1, Human CD3 protein. Nature of the assay: ELISA; without uPA. (An ELISA detects its analyte on a solid surface through an enzyme-linked reagent.)
Consider B1, for which the EC50 is 25.2 µg/mL.

The molecule B2 had a 50% effective concentration (EC50) of 24.4 µg/mL.

Consider B3, for which the EC50 was 48.8 µg/mL.

On to B4, for which a half-maximal response (EC50) required 47 µg/mL.

Consider B5, for which the EC50 came out at 25.5 µg/mL. This EC50 is about 1.8-fold lower than that of the molecule before.

Take B6: a half-maximal response (EC50) required 50.1 µg/mL. This EC50 lies about 2-fold higher than the previous one.
